Data reported in the supplement of paper PMC8728848.
The list shows a part of the results.

Columns and labels:
Assay in all cases: glycan array binding signal (z-score within array); higher = stronger binding
Conditions in all cases: glycan notation: IUPAC condensed, linker removed; mutation: A146Q
Glc(a1-6)Glc(a1-6)Glc = target: Glc(a1-6)Glc(a1-6)Glc
Procedure, shortened: (§1)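 Negative Z-scores can be read as non-binding. The Z-score is calculated within each array and then averaged across arrays of one protein sequence at different concentrations or buffers and across linkers. Arrays, 3228 in all, were curated from the Consortium for Functional Glycomics database and kept only where the protein sequence was available.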

Glc(b1-4)Glc = target: Glc(b1-4)Glc
Procedure, shortened: as §1

Glc(b1-6)Glc = target: Glc(b1-6)Glc
Procedure, shortened: as §1

GlcA(b1-3)Gal = target: GlcA(b1-3)Gal
Procedure, shortened: as §1

GlcA(b1-3)GlcNAc = target: GlcA(b1-3)GlcNAc
Procedure, shortened: as §1

GlcA(b1-6)Gal = target: GlcA(b1-6)Gal
Procedure, shortened: as §1

[1] = target: GlcNAc(a1-3)Gal(b1-4)GlcNAc
Procedure, shortened: as §1

[2] = target: GlcNAc(a1-4)Gal(b1-3)GlcNAc
Procedure, shortened: as §1

[3] = target: GlcNAc(a1-4)Gal(b1-4)GalNAc
Procedure, shortened: as §1

[4] = target: GlcNAc(a1-4)Gal(b1-4)GlcNAc
Procedure, shortened: as §1

[5] = target: GlcNAc(a1-4)Gal(b1-4)GlcNAc(b1-3)Gal(b1-4)Glc
Procedure, shortened: as §1

[6] = target: GlcNAc(a1-4)Gal(b1-4)GlcNAc(b1-3)Gal(b1-4)GlcNAc
Procedure, shortened: as §1

[7] = target: GlcNAc(a1-4)Gal(b1-4)GlcNAc(b1-3)Gal(b1-4)GlcNAc(b1-3)Gal(b1-4)GlcNAc
Procedure, shortened: as §1

[8] = target: GlcNAc(a1-4)Gal(b1-4)GlcNAc(b1-3)Gal(b1-4)[Fuc(a1-3)]GlcNAc(b1-3)Gal(b1-4)[Fuc(a1-3)]GlcNAc
Procedure, shortened: as §1

[9] = target: GlcNAc(a1-6)Gal(b1-4)GlcNAc
Procedure, shortened: as §1

[10] = target: GlcNAc(b1-2)Gal(b1-3)GalNAc
Procedure, shortened: as §1

[11] = target: GlcNAc(b1-2)Man(a1-3)[GlcNAc(b1-2)Man(a1-6)]Man(b1-4)GlcNAc(b1-4)GlcNAc
Procedure, shortened: as §1

[12] = target: GlcNAc(b1-2)Man(a1-3)[GlcNAc(b1-2)Man(a1-6)]Man(b1-4)GlcNAc(b1-4)[Fuc(a1-6)]GlcNAc
Procedure, shortened: as §1

[13] = target: GlcNAc(b1-2)[GlcNAc(b1-4)]Man(a1-3)[GlcNAc(b1-2)Man(a1-6)]Man(b1-4)GlcNAc(b1-4)GlcNAc
Procedure, shortened: as §1

GlcNAc(b1-3)Gal = target: GlcNAc(b1-3)Gal
Procedure, shortened: as §1

[14] = target: GlcNAc(b1-3)Gal(b1-3)GalNAc
Procedure, shortened: as §1

GlcNAc(b1-3)Gal(b1-4)Glc = target: GlcNAc(b1-3)Gal(b1-4)Glc
Procedure, shortened: as §1

[15] = target: GlcNAc(b1-3)Gal(b1-4)GlcNAc
Procedure, shortened: as §1

[16] = target: GlcNAc(b1-3)Gal(b1-4)GlcNAc(b1-3)Gal(b1-4)GlcNAc
Procedure, shortened: as §1

GlcNAc(b1-3)GalNAc = target: GlcNAc(b1-3)GalNAc
Procedure, shortened: as §1

GlcNAc(b1-3)Man = target: GlcNAc(b1-3)Man
Procedure, shortened: as §1

[17] = target: GlcNAc(b1-3)[GlcNAc(b1-4)][GlcNAc(b1-6)]GlcNAc
Procedure, shortened: as §1

[18] = target: GlcNAc(b1-3)[GlcNAc(b1-6)]Gal(b1-4)GlcNAc
Procedure, shortened: as §1

[19] = target: GlcNAc(b1-3)[GlcNAc(b1-6)]GalNAc
Procedure, shortened: as §1

[20] = target: GlcNAc(b1-4)Gal(b1-4)GlcNAc
Procedure, shortened: as §1

GlcNAc(b1-4)GlcNAc = target: GlcNAc(b1-4)GlcNAc
Procedure, shortened: as §1

[21] = target: GlcNAc(b1-4)GlcNAc(b1-4)GlcNAc
Procedure, shortened: as §1

[22] = target: GlcNAc(b1-4)GlcNAc(b1-4)GlcNAc(b1-4)GlcNAc(b1-4)GlcNAc
Procedure, shortened: as §1

[23] = target: GlcNAc(b1-4)GlcNAc(b1-4)GlcNAc(b1-4)GlcNAc(b1-4)GlcNAc(b1-4)GlcNAc
Procedure, shortened: as §1

[24] = target: GlcNAc(b1-4)[GlcNAc(b1-6)]GalNAc
Procedure, shortened: as §1

[25] = target: GlcNAc(b1-6)Gal(b1-4)GlcNAc
Procedure, shortened: as §1

GlcNAc(b1-6)GalNAc = target: GlcNAc(b1-6)GalNAc
Procedure, shortened: as §1

GlcNAc3Prop(b1-4)GlcNAc = target: GlcNAc3Prop(b1-4)GlcNAc
Procedure, shortened: as §1

B1: Gal 3 (Homo sapiens), P17931 (protein)
chain: MADNFSLHDALSGSGNPNPQGWPGAWGNQPAGAGGYPGASYPGAYPGQAPPGAYPGQAPPGAYHGAPGAYPGAPAPGVYPGPPSGPGAYPSSGQPSAPGAYPATGPYGAPAGPLIVPYNLPLPGGVVPRMLITILGTVKPNANRIQLDFQRGNDVAFHFNPRFNENNRRVIVCNTKLDNNWGREERQSVFPFESGKPFKIQVLVEPDHFKVAVNDAHLLQYNHRVKKLNEISKLGISGDIDLTSASYTMI
For B1, the “glycan array binding signal (z-score)” value (Glc(a1-6)Glc(a1-6)Glc) was -0.198, the “glycan array binding signal (z-score)” value (Glc(b1-4)Glc) was -0.101 and the “glycan array binding signal (z-score)” value (Glc(b1-6)Glc) was -0.178. For the same binder, the “glycan array binding signal (z-score)” value (GlcA(b1-3)Gal) was -0.192, the “glycan array binding signal (z-score)” value (GlcA(b1-3)GlcNAc) was -0.2 and the “glycan array binding signal (z-score)” value (GlcA(b1-6)Gal) was -0.183. The “glycan array binding signal (z-score)” value [1] was -0.199, the “glycan array binding signal (z-score)” value [2] was -0.185 and the “glycan array binding signal (z-score)” value [3] was -0.198. For the same binder, the “glycan array binding signal (z-score)” value [4] was -0.173, the “glycan array binding signal (z-score)” value [5] was -0.199 and the “glycan array binding signal (z-score)” value [6] was -0.155. The “glycan array binding signal (z-score)” value [7] was 2.23, the “glycan array binding signal (z-score)” value [8] was -0.158 and the “glycan array binding signal (z-score)” value [9] was -0.134. For the same binder, the “glycan array binding signal (z-score)” value [10] was -0.198, the “glycan array binding signal (z-score)” value [11] was -0.177 and the “glycan array binding signal (z-score)” value [12] was -0.197. The “glycan array binding signal (z-score)” value [13] was -0.182, the “glycan array binding signal (z-score)” value (GlcNAc(b1-3)Gal) was -0.198 and the “glycan array binding signal (z-score)” value [14] was -0.176. The “glycan array binding signal (z-score)” value (GlcNAc(b1-3)Gal(b1-4)Glc) was -0.195, the “glycan array binding signal (z-score)” value [15] was -0.204 and the “glycan array binding signal (z-score)” value [16] was 0.858. For the same binder, the “glycan array binding signal (z-score)” value (GlcNAc(b1-3)GalNAc) was -0.202, the “glycan array binding signal (z-score)” value (GlcNAc(b1-3)Man) was -0.204 and the “glycan array binding signal (z-score)” value [17] was -0.166. The “glycan array binding signal (z-score)” value [18] was -0.206, the “glycan array binding signal (z-score)” value [19] was -0.198 and the “glycan array binding signal (z-score)” value [20] was -0.192. For the same binder, the “glycan array binding signal (z-score)” value (GlcNAc(b1-4)GlcNAc) was -0.132, the “glycan array binding signal (z-score)” value [21] was -0.18 and the “glycan array binding signal (z-score)” value [22] was -0.091. For the same binder, the “glycan array binding signal (z-score)” value [23] was -0.153, the “glycan array binding signal (z-score)” value [24] was -0.203 and the “glycan array binding signal (z-score)” value [25] was -0.195. The “glycan array binding signal (z-score)” value (GlcNAc(b1-6)GalNAc) was -0.194 and the “glycan array binding signal (z-score)” value (GlcNAc3Prop(b1-4)GlcNAc) was -0.201.
